Laboratory results: paper PMC6919601, “Identification of Plasmodium dipeptidyl aminopeptidase allosteric inhibitors by high throughput screening” (PLoS ONE, 2019)
Hit rate of the full screen: of about 110,000 compounds, about 230 (0.21%) showed an effect of 50% or more. This is one part of the list.

biological target: DPAP1 (Plasmodium falciparum, UniProt Q8IIJ9); assay: primary screen, percent inhibition; read by cleavage of a fluorogenic dipeptide substrate; higher = more effect of the substance; parameters: species or system P. falciparum D10 trophozoite lysates; single well
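Note: 30 min substrate incubation versus DMSO and 10 µM JCP410 controls.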

Sequence of DPAP1 (Q8IIJ9 whole entry, looked up): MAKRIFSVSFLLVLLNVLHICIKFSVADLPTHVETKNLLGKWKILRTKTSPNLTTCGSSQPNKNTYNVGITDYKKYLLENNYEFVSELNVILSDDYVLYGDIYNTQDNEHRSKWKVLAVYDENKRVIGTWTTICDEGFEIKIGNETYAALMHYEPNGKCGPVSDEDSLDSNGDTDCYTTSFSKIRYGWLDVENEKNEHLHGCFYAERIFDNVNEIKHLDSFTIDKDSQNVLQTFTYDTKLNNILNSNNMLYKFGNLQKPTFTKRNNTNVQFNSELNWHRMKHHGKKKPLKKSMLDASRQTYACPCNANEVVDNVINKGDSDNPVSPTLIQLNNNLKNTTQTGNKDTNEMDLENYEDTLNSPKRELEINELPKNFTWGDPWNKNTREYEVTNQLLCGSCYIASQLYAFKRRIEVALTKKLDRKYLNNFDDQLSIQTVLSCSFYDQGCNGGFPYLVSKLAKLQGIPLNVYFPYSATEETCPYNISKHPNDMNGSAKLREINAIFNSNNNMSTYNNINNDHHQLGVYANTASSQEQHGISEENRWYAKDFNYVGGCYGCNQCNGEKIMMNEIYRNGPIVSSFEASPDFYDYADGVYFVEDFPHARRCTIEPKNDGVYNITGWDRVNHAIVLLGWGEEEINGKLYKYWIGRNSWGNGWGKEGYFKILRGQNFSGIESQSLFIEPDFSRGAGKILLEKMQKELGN

| SMILES | % Inhibition @ 10 uM [%] |
| --- | --- |
| Cc1ccc(C(=O)/N=C(\N)Nc2nc3ccccc3s2)cc1 | -1.41 |
| CN1C(=O)C(=Cc2cc(Cl)cc(Cl)c2O)C(=O)N(C)C1=O | -2.44 |
| O=C(Nc1cccc(C(F)(F)F)c1)C(O)c1ccccc1 (stereo not drawn) | 4.04 |
| Cc1nc2c(c(C)nn2C(C)(C)C)c(C)c1CCC(=O)NCc1ccccc1Cl | -0.72 |
| Brc1ccc2nc(Nc3ccccn3)nc(-c3ccccc3)c2c1 | 1.24 |
| Cc1ccccc1S(=O)Cc1ccc(C(=O)NCCN2CCOCC2)o1 (stereo not drawn) | 3.88 |
| Cc1onc(-c2c(Cl)cccc2Cl)c1C(=O)Nc1ccc(OCc2ccccc2)cc1 | 2.78 |
| COc1ccc(CNC(=O)CC(NS(=O)(=O)c2ccc(Br)cc2)c2ccco2)cc1 (stereo not drawn) | 2.9 |
| COc1ccc(/C(O)=C/C=N/c2ccccc2C(=O)c2ccccc2)cc1 | -2.88 |
| COc1ccc(CCNC(=O)CCCn2ncn3c(cc4occc43)c2=O)c(OC)c1 | 3 |
| O=C1NC(=O)/C(=C\c2ccc(Cl)s2)N1 | -0.178 |
| Cc1ccccc1CN1CCN(CC(=O)NCCC2=CCCCC2)C1=O | -0.148 |
| O=C(O)CC(NCc1ccccc1)c1ccccc1 (stereo not drawn) | -5.85 |
| COc1ccc(-c2cc3nc4n(c(=O)c3s2)CCC4)cc1 | 1.08 |
| CCOC(=O)c1nn2c(C(F)(F)F)cc(-c3cccs3)nc2c1Cl | 4.52 |
| CCOC(=O)c1c(NC(=O)c2cccc(F)c2)sc(C(=O)NC2CCCC2)c1C | 0.565 |
| Cc1cc(C)n(-c2nnc(C)n2/N=C/c2ccsc2)n1 | 0.561 |
| CCOc1ccccc1CNc1ccc(O)cc1 | -2.83 |
| Cn1ncc(Cl)c1C(=O)N1CCN(c2cccc(Cl)c2)CC1 | -5.07 |
| Cc1cc(=O)n(C(=O)c2ccccc2)c(=O)n1C(=O)c1ccccc1 | 5.55 |
| CCCCCCCc1ccc(-c2noc(CCCCC)n2)cc1 | -6.78 |
| CN1CCC(N(C)Cc2ccc(Br)s2)CC1 | -2.56 |
| Cc1ccccc1Nc1cccc2nonc12 | -3.27 |
| CN1CCC(NCCN2CCCCC2)CC1 | 0.472 |
| COc1ccc(S(=O)(=O)NC2CC(C)(C)NC(C)(C)C2)c(C)c1C | -3.13 |
| O=S1(=O)C(/C=N/Cc2cccnc2)=C(O)c2sccc2N1Cc1ccc(F)cc1 | -4.41 |

| SMILES | % Inhibition @ 10 uM [%] |
| --- | --- |
| COc1ccc2cc3cc(C(=O)NCCCOC(C)C)sc3nc2c1 | -1.83 |
| N#Cc1cc2c(=O)n3ccccc3nc2n(CCCn2ccnc2)c1=N | -0.169 |
| CCOC(=O)C1CCN(C2CCC(CC)CC2)CC1 (stereo not drawn) | -3.15 |
| O=C(CSc1c2c(nc3ccc(Cl)cc13)CCCC2)NCCCN1CCCC1=O | -9.16 |
| Brc1ccc(COc2cccc3cccnc23)cc1 | 0.726 |
| CCOC(=O)C1=C(C)N=c2s/c(=C/c3cccnc3)c(=O)n2C1c1ccc(OC)cc1 (stereo not drawn) | 6.11 |
| Cc1cc(C)cc(NC(=O)c2ccc([N+](=O)[O-])o2)c1 | 3.48 |
| COc1ccc(CN2CCN(c3ccccc3OC)CC2)c(OC)c1 | 0.00519 |
| N#CCC(=O)N1CCN(C/C=C/c2ccccc2)CC1 | 2.08 |
| CCN1C/C(=C\c2ccc(OC)c(OC)c2)C(=O)/C(=C/c2ccc(OC)c(OC)c2)C1 | 4.06 |
| N#CC1(S(=O)(=O)c2ccccc2)CCCCC1 | 0.035 |
| COc1ccc(-c2ccccc2)cc1NCc1ccncc1 | -0.446 |
| CN1C(=O)C2(C(C#N)=C(N)N(c3cc(Cl)cc(Cl)c3)C3=C2C(=O)CCC3)c2ccccc21 (stereo not drawn) | 5.59 |
| CC1CCCCC1N1CN=C(Nc2nc3ccccc3o2)NC1 (stereo not drawn) | 3.73 |
| CCC(=O)c1cc2c(C)cc(=O)oc2c(C)c1OC | 1.25 |
| COc1ccc(CCNC(=O)Cn2nc(C)n3c(cc4c(OC)cccc43)c2=O)c(OC)c1 | -5.32 |
| O=c1oc2ccccc2n1CCc1ccccc1 | -0.968 |
| CCCn1c(CN2CCCC(C)C2)nc2c1c(=O)n(C)c(=O)n2C (stereo not drawn) | 2.9 |
| COc1cccc(CNc2ccc(C)c(C)c2)c1 | -7.11 |
| C=CCNc1nc2c(C)cccn2c(=O)c1/C=C1\SC(=S)NC1=O | 15.9 |
| CCCN1CCN(c2ccc(C(=O)NC3(C(=O)N[C@@H](CCc4ccccc4)CS(=O)(=O)Nc4ccc(OC)cc4)CCCCC3)cc2)CC1 | -6.46 |
| OCCCc1cn(Cc2ccccc2)c2ccccc12 | 1.54 |
| c1ccc2c(c1)nc(SC1CCCCC1)c1nncn12 | 3.99 |
| COc1ccc(Cn2c(CO)nc3ccccc32)cc1OC | -7.55 |
| CCOC(=O)c1c(NC(=O)C2=CC(c3ccc(C)cc3)=NS(=O)(=O)N2C)sc(C)c1C | -2.84 |
